Results: the antibiotic and cytotoxicity screens of Wong et al. (2023)
The list shows a part of the results.

Experiments:
HSkMC = human skeletal muscle cells; assay: cytotoxicity call (relative viability < 0.9); details: 10 µM
HepG2 = assay: cytotoxicity call (relative viability < 0.9); details: 10 µM
S. aureus RN4220 = assay: growth inhibition call (relative growth <= 0.2); details: 50 µM

COc1ccc(-c2cc(=O)c3c(O)cc(O[C@@H]4O[C@@H](CO[C@@H]5O[C@H](C)[C@@H](O)[C@H](O)[C@H]5O)[C@H](O)[C@@H](O)[C@H]4O)cc3o2)cc1O
inactive: cytotoxicity call (HSkMC) | cytotoxicity call (HepG2) | growth inhibition call (S. aureus RN4220)

CCC(=O)Nc1nc(C(=O)NC)cs1
inactive: cytotoxicity call (HSkMC) | cytotoxicity call (HepG2) | growth inhibition call (S. aureus RN4220)

C[C@H](CO)N1C[C@H](C)[C@H](CN(C)Cc2ccc(C(=O)O)cc2)Oc2ccc(NS(=O)(=O)c3cn(C)cn3)cc2CC1=O
inactive: cytotoxicity call (HSkMC) | cytotoxicity call (HepG2) | growth inhibition call (S. aureus RN4220)

COc1ccc(NC(=O)N(C)C[C@H]2OCCCC[C@@H](C)Oc3ccc(NC(=O)Nc4cccc5ccccc45)cc3C(=O)N([C@@H](C)CO)C[C@H]2C)cc1
inactive: cytotoxicity call (HSkMC) | cytotoxicity call (HepG2) | growth inhibition call (S. aureus RN4220)

Cn1cnc(S(=O)(=O)N[C@H]2CC[C@@H](CC(=O)NCC3CC3)O[C@@H]2CO)c1
inactive: cytotoxicity call (HSkMC) | cytotoxicity call (HepG2) | growth inhibition call (S. aureus RN4220)

C[C@H](CO)N1C[C@H](C)[C@H](CN(C)S(=O)(=O)c2cn(C)cn2)Oc2ccc(NC(=O)CCC(F)(F)F)cc2C1=O
inactive: cytotoxicity call (HSkMC) | cytotoxicity call (HepG2) | growth inhibition call (S. aureus RN4220)

C[C@@H]1CN([C@@H](C)CO)C(=O)c2cc(C#Cc3ccccn3)cnc2O[C@@H]1CN(C)C(=O)c1cnccn1
inactive: cytotoxicity call (HSkMC) | cytotoxicity call (HepG2) | growth inhibition call (S. aureus RN4220)

O=C(CCCCCCNC(=O)c1ccc(NCc2cn(Cc3ccc(C(=O)c4ccc(Cn5cc(CNc6ccc(C(=O)NCCCCCCC(=O)NO)cc6)nn5)cc4)cc3)nn2)cc1)NO
inactive: cytotoxicity call (HSkMC) | cytotoxicity call (HepG2) | growth inhibition call (S. aureus RN4220)

COc1ccc(S(=O)(=O)N(C)C[C@H]2OCCCC[C@@H](C)Oc3ccc(NC(=O)C4CCCCC4)cc3C(=O)N([C@@H](C)CO)C[C@H]2C)cc1
inactive: cytotoxicity call (HSkMC) | cytotoxicity call (HepG2) | growth inhibition call (S. aureus RN4220)
